Experimental data published in a collection of fitness landscapes (doi:10.1016/j.celrep.2020.107928).
Whole data set: some 81,000 sequences, median “one-hybrid fitness for binding NBS DNA” near -0.1, cut for the highest 2% near 0.36. The list shows a part of the results.

B1: Caulobacter ParB omega fusion; a variant is named by its letters at X, in order, B8GW30 (parent)
chain: MESVVVGEPGMSEGRRGLGRGLSALLGEVDAAPAQAPGEQLGGSREAPIEILQRNPDQPRRTFREEDLEDLSNSIREKGVLQPILVRPSPDTAGEYQIVAGERAWRAAQRAGLKTVPIMVRELDDLAVLEIGIIENVQRADLNVLEEALSYKVLMEKFERTQENIAQTIGKSXSHVANXMRLLXLPDEVQSYLVSGELTAXHARAIAAAADPVALAKQIIEGGLSVRETEALARKAPNLSAGKSKGGRPPRVKDTDTQALESDLSSVLGLDVSIDHRGSTGTLTITYATLEQLDDLCNRLTRGI

Variants of: B1
Assay: one-hybrid fitness for binding NBS DNA (the Noc-binding site; scaled: cognate 1, non-cognate 0); higher = stronger binding
Conditions: with NBS DNA site
Summary of the method: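 In E. coli USO, a HIS3 reporter with its site placed 19 bp from the promoter was used to select Caulobacter ParB variants randomised at four specificity codons. Growth lasted 48 hours at 37°C on histidine-free M9 containing 0.1 mM IPTG and 5 mM 3-AT. Fitness was taken as the log change in variant-to-wild-type read ratio from Illumina sequencing of pre- and post-selection plasmids, rescaled between the non-cognate and cognate sites.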

one-hybrid fitness for binding NBS DNA, 0.236:
RKPT

one-hybrid fitness for binding NBS DNA, 0.245:
RCER

one-hybrid fitness for binding NBS DNA, 0.203:
VRRA

one-hybrid fitness for binding NBS DNA, 0.258:
RKRM

one-hybrid fitness for binding NBS DNA, ≤ 0.2:
HRNF
TNAV
PCMS
EVQA
RCDK
LADL
ARFV
GVAG
KHHW
PCCT
RGSF
TIGL
DPTL
GWLC
YGYR
GCDA
CNLL
SELG
ATTA
SAMW
CPGE
PQLV
HMDR
HHPG
GKTL
IAWR
DAYL
DAPR
TSSG
PSMK
PDPI
GGIR
ASQA
SPLT
EIEG
ATAE
AGKL
ENTS
FDMR
PYWD
PVWC
YHPW
VQHT
RFSQ
TYFG
SFDR
MQDV
KHIR
KEAT
GSHV
CDLV
CRPC
IFTI
MWGP
LACW
RHLQ
MPWS
GSEF
SPRR
AAYW
YTSK
THKS
PVRC
TWVY
HVVR
RFWW
SIKC
DTLW
GQTG
TPWS
FDYL
ERIL
IALL
VVHY
MCLK
AHHD
TGFG
IRYQ
QTSD
CESR
APSC
GTAG
LRMN
QSSL
PFGP
WRIR
AKKS
NSLP
RQMC
MHMR
PIFT
NVSS
KGAR
HAVR
